Source: article PMC10726135
The list shows a part of the results. At the low end of the ranking the order means little. Measured with an extract: partners may take part in the binding.

molecular target: T1, HNF4alpha2 (COS-7 nuclear extract) (UniProt P41235); assay: protein-binding microarray; conditions: COS-7 nuclear extract on double-stranded Agilent 4x180k PBM; binding buffer, salt, pH and temperature not given; high values mean tight binding; double strand, one strand shown; sequences stand for … in …GCCTAGGGAGATTAGAGTATCGGTCGA
T1 sequence: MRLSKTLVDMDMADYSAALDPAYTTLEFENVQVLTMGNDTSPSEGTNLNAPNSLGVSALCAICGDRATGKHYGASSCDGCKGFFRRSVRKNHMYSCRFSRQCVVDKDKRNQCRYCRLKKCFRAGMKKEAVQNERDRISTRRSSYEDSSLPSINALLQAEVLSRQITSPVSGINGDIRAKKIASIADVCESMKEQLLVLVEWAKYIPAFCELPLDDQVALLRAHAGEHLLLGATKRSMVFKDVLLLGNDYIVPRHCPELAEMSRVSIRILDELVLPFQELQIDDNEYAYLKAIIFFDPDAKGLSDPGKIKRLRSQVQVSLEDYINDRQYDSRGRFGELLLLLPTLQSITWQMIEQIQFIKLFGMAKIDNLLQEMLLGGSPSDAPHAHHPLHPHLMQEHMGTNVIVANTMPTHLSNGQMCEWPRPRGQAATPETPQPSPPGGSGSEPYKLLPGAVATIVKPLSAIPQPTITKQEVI

Row | Sequence | binding signal (log2 normalized intensity)
1 | TTTTGCAACATGAGGAGCCAAGTTTTGCAA | -1.09
2 | TGGCCACTCCCTGATAGAGAACAAGGTTCC | -0.772
3 | ACAGATAGCATAATCAAAGAGAAAAACATT | -0.839
4 | GGGCTTCAGGGTAAATCCCGTCCCTGCCAA | 0.623
5 | CGAGCGCTGCTTCTCGTCCCCGCCCGAGCC | 3.24
6 | TCCCAATCTCTGTGGGAGGGAAGGAGCCTA | -1.17
7 | ACCCAGGTGTGTTGCAACTTTGACTATAGC | 0.777
8 | AACTCAAAGATTCTTAGAGAGTTGGGCAAG | -0.976
9 | GGATTTCCGTAACCTCACAGAAATCCAAAG | -1.14
10 | CAAACACGGACAGGCAGGCCCAGACATGTC | -0.876
11 | GTGAATGACCCCTCCCCTCCCCCTTGGTGT | 5.61
12 | ACACAGGATTGAACCTCTGGAATTCATCTC | 0.145
13 | AATGAGATCTCCCCACATTCCAACACAGGG | 0.0808
14 | CTTTAAGGTCACATAGCAGGCATACCAGGC | 0.0309
15 | CTTGTCCAACTCCCCTCCCAAGGCAGCAAT | 4
16 | TAACTCAAACATCTGACAGAGATAAGGAAG | -1.09
17 | ATCAGAGCATGCATACGTGAAAGTAAAGAG | -1.03
18 | AGCTGTGCGGTAGGCATTGAGGCAGCCAGC | -1.15
19 | TTCATCTGGGACGTGGCTCAAGATTACAGG | -0.0321
20 | ATTCACTTTTTGGCCTTTGGCTGTTCGATG | 2.51
21 | GTTTCGCAAGGACGTGACCTTTATGGGAAA | 3.06
22 | GAGTACATGCCTCTCCCAGTGGAATGCAAA | 0.217
23 | ACAAAGATCCCTTATTTGCATGAAGCACAA | -1.2
24 | ATGGTTTACCATATTTACTTATGGTTTGAC | 1.43
25 | TCATGATTAGATTGAAGTTACGTATTTTTG | 1.18

Row | Sequence | binding signal (log2 normalized intensity)
26 | AAGGCAAGGGTCAAGATGTCTCAAGATATC | 0.739
27 | ATAAGAAGGGGTCAGACCAGACAGCACCTC | -1.07
28 | AGAAGCCACTGCGACCTTTGCCCTCCCTAA | 7.38
29 | ATGGTGCCTATTTGTCCCTGACCAAACTCA | -1.1
30 | TTAAAGTGCCATTGAGATGGTAACCACACC | -1.16
31 | TCTGTGTGTATGTGTGTGTACACATTGATA | 2.42
32 | ATGTGGTCAAAACTTTGTTTGAGTTCCAAA | 1.07
33 | CAGCTTCAGGAGCTGCAGGGAAGCCCCTGC | -0.871
34 | ATAGAAAGCCTTTGAACTGTGTTGCAAATT | 0.837
35 | GGTCAAGAGGGACAAAATGCCCAGGATTCC | -1.09
36 | AGCATATTTGGCCACATCCTGTCTCCTTTA | -0.0236
37 | GCCACTGAACTTTCACTGCCTATCTCCTAT | -0.0469
38 | CCTGACATTCTTGAGCTGCTAAACCAACAC | -1.1
39 | TCCCAGATGCTGACCATATTCCAAATTCCA | 0.217
40 | CCCTGTTTAGAATTCTGCCTCCCCCACCCC | 6.11
41 | CAAACCGAGATCAAGGGACAGAGATAACTG | -1.18
42 | GTGGCCTTTGTCCTAGTGCATGCTGGGAGT | 1.74
43 | GAATCTGGACAGTGTAAGATAAAAATCAGA | -1.14
44 | TTCCCTCCCTCCCAGTACAAAGTTCACTTT | 6.44
45 | TGCCCTTTGCCTGGTGATCTTTGTTAGACC | 2.7
46 | CCAAGCAGTGATATTCTCTCGTCACCTCCA | -1.14
47 | CTCCACTGGGAATGACATTTTGGACTACTT | 1.71
48 | CATTCAGATAAATGGTGTAGAGGCCAGAGG | -0.833
49 | ACAGAGGCAGTGGGACAATGAAGCCTAAAT | -1.06
50 | TCTTTCCACTTGGGCTTCCTCATCTGTTTA | 1.16

Row | Sequence | binding signal (log2 normalized intensity)
51 | GGAATGCAGTGGCGCAATCTCAGCTCAATC | -1.1
52 | CCCTTTTTCTGTAAAGCTTTATTTTGGGGC | 1.49
53 | AAGGAGGCAGTAAGATAAGGAGGTAGAGTC | -1.19
54 | AGATTGCCACCTTGGTGAGAGATTAAACAT | -0.677
55 | GGTACGTTCCAATATTCTGGCTTCTCGTGA | -1.13
56 | GGCTTGTGCTTAGCTATTTCGTTGAATGCT | -0.502
57 | CCCGGCTTTGGGCTTGAGCAGCTGGTGGAG | 0.349
58 | GGGAAAAGATGGTCTCTCACCTGGCTTCCC | -1.05
59 | AGAAAAGAAAGTGAGGAATGCAACCACACC | -0.894
60 | ATTGGTTTCCGCTAAGTCCAAAGGTAAAAA | 3.61
61 | GACCCTCGGGCCTCCCTAGAGGCCTTCTCT | -1.09
62 | TATGTTGCTGATAAAGTCTATCTTAGCCAT | 0.173
63 | TTCACCGTATTATCTTATCTCCTCTGTAGG | 1.61
64 | CTGCCCAGACCTTATCTTGCATTTCTTCAG | -0.308
65 | TTAAGGACAAAGGCTTTGAGTCAACACACC | -1.15
66 | ACCTCAAATGCAGGTGAGAGGCCTCTAAGC | -1.02
67 | AGCTCCAGGAGACGTAGAGATAAGGTCTTC | -0.875
68 | TTTTCCCTGCTGCTGGCTGGCGGCCTTTGG | 1.26
69 | CTCGAGGTGGACTTTCCCCCCTCACACTTT | 5.25
70 | ATAAATAAGAAGCCTTATCAGTATCAATGA | -0.294
71 | CCATTTCTCAGGTTGTGTTTGCAGTGAGTA | 2.09
72 | GCCGGCCCGGTGCGCTGGCCTTGCTTTTCA | -0.995
73 | AGTTCTGTCCTTTGTCCTGTACCTGGGAAG | 2.12
74 | TTCCAAACATGTTTCGAACGGTTGCAGCAT | -1.05
75 | CCAGCTGCAGAGGAAGGACATGGTAAAGAT | -1.09

Row | Sequence | binding signal (log2 normalized intensity)
76 | AGAACAAACAATGGTTTGGGACAAAGTTTG | 0.489
77 | CCGTCCTCCCCCACGACAGAATTGACTCTT | 3.53
78 | CACTGGGGTTTAAAGTTTATAGGCTAGAAT | 0.463
79 | GAAGGCCAGGCAGCACAATTTGTGTCTCTC | -1.04
80 | CTAAGCAGCTGCAGTTTCTGCTATCTGCCT | -1.15
81 | AAGCTGTGGGATCCAACCAGAGGGAAGAGA | -1.12
82 | CATTCCTTAACATGGTTTGCAAGACCTCTG | 1.13
83 | CAGCTCAGCTAGTGAGATACGGCCTGGACT | 1.28
84 | GTCGCGTATCTGACTTTATCATTGGACTCT | 4.88
85 | TCTGTTGAGAACTGGAGCAAAGGTCACTCT | 5.13
86 | AGAAAACGTAAGCCCTCTATCAAAGGAGAA | -0.944
87 | CTAGTTCTTATCTCAGGTCCTGCCATTAAA | 0.632
88 | TAATACAAGAGGCTTCTTATCAGCAGCTGG | -1.04
89 | ATGGCAGGGGTTAACCTCTATTGACCTTCT | 4.36
90 | TCTCCTAAAGTGACTAGAGAGCAGGAGCCA | -1.14
91 | TTATTCCGTACAAGGATTCATTTCCACCCT | 1.59
92 | ACATTCCACGTTTGGGGAAGGATAAAATGA | -0.484
93 | AATGTCTTTCCTGCAGAGGGACTGACTCCC | 0.889
94 | GCAAACAAGGGCAACTCTAATAGCACAGAT | -1.06
95 | TCTGTGCTCATTATTATCAGCAAGAAAATC | 0.234
96 | TTGAACCTTTCTTTGTCTTTGCAATGTTGT | 2.41
97 | AGGCCAGCAGTGCTTTTCCCAGGAATAAAA | -1.13
98 | AGAACTTTGACCGTTTGATTATTTGTGAAG | 2.44
99 | CGGCGCCCGCCCACTGGAGACTTCAAACGG | 0.955
100 | GCGCCGGCCTCGGTCCTCGCTCGCCCGAGC | -1.06

Row | Sequence | binding signal (log2 normalized intensity)
101 | TTACCCCTTGAGTTTGAACTTTGACTTATT | 6.34
102 | GGGGCGCAGAAGGGATGGGAACCGACCTTT | 5.69
103 | TGTCCCCCATCTCATCCTGGGTGCCTTACA | 0.96
104 | TTAAAAGTTTCCCTTGATCAAAAACTGCCT | -1.07
105 | CTGCTTCCCTAGGGAGGTGATTGGTGAGTC | 0.108
106 | CCCGCCCAGATGTCTGGCTAAGACCTTTAG | 1.8
107 | AACTGCAGGAGTCGGGAGGTAGGGGTGGCG | -0.858
108 | TGTTCTTGCCTGATAGCATCGTGGGTATTT | 1.26
109 | AATACTTGCCTAAGGTCAATGTCCTTTTTC | 3.64
110 | TGGCTCCAAAGTCTATGTGTGCTTTCTTCA | 2.12
111 | GGCCCTGTGCTGCCCCCGATAGCACTATTA | 3.44
112 | TTGCTGGTCCCTTTCAAAACCTTTGGTTTT | 1.21
113 | GCCAGATATGCCGAGAATGCAGCCTTATCT | -1.15
114 | GCAGAGTTTTTTACTGCTCCTGCTGGCTAG | -1.13
115 | TAACTAACAAAAGCAGAGGAGTGGCCATGA | -1.04
116 | GACTCCAGCTAAAGCCTGCTCGTTGGGGGT | -0.983
117 | TCATTCAAAGTCCAAAAAGAATCAGTTACA | 1.64
118 | GCATGCACTGTTTGCCATAGATCCCACCAT | 1.17
119 | GCCTGTCAGGCCCAGAAACACTGAACCTTG | 1.63
120 | TTACCTGGGAAATTCCCTTTGCCTCATCTG | -0.976
121 | ATCACACAGGCATATTTGGTTAGCTGTGCA | 0.0543
122 | AGGTCAGGTGAATCAACGATAAGGGATGAT | -1.14
123 | CACAGACCTGCCTCTCTCTCATGTCTGTAC | 1.21
124 | AGTCCAAGAGATTTCTACAGATAGCAAGAT | -1.09
125 | TCCTTCTCACCGGGTGGAGCCTCACTGCAG | 0.143

Row | Sequence | binding signal (log2 normalized intensity)
126 | ACAGTTAGGTAAGAGACAAAGGTTGCATTC | 1.79
127 | TCCTTTTGCTTAAAACGCCTGCAGAAACTT | 0.384
128 | GGATGAGGCCGTTCTAGCCCTTTTTCCGGC | -0.835
129 | TCAAAGCCAGCAACGGTGAGTCAAGCACTT | -1.11
130 | GACAGCGGGTGTTTCTGGGAGTTGTGGTCC | 1.55
131 | GAACATAAGGATGCGGACTCCTCCCTCAGC | -0.967
132 | CACCCAGAGCGTCCCACCTGAGGCCAAGCA | -1.25
133 | AGCCAGGTTAATTCACATCTCCAGTTCCAA | -0.99
134 | CTGCTGGGCGTGAACTGTGACTTTTATCTT | 1.61
135 | TGAAGTCCAAAGGCCATCTGCTGGAGAATC | 3.06
136 | AGTAGAGAGCAATCATGGGCCCACAGATGA | -0.846
137 | CTTTCTTCTTGATCAAGAGGAAGATCTTTT | 1.56
138 | AGCCTGTGGTTTCTCTTTGTATACACATTA | 1.44
139 | GGTGTTAAAATAACGACCTTTGGGCTAAAA | 3.81
140 | CACCTTGGGGGCTGCTGGGGGCACAGTCCA | 2.36
141 | ATAGCCAAGCCAACCAGGAGAATTTCAGTA | 2.22
142 | AGTGTTAAGGACAACCGGTAGCACAACATA | -1.04
143 | ATCCTTCTTGACCAGGCAAGCTTGACCTTT | 7.07
144 | TCACTGACATTCCAGCCACTAAGAAGCCCA | -0.962
145 | AGAGGGGCCAGGAACGTCACACTGAAAGCT | -1.18
